PubChem BioAssay AID662 (National Center for Advancing Translational Sciences (NCATS), 2007)
Among all 71,000 compounds or so, about 1,800 (2.5%) were called active. The shares of active, inactive and inconclusive entries below differ from those in the screen. Calls come from the whole dose curve; as a rule, active = well fitted activation curve with a large enough effect in the signal ratio, with a control signal flat (not every such curve was filed as active); inconclusive = small, poorly fitted or top-dose-only effect, or effect the other way, or a change in a side signal; inactive = flat fitted curve, though single readings scatter; the % refers to the signal ratio. Potencies beside an inconclusive call are fits to weak or partial responses and may not hold up.

Experiment: Cell signaling CRE-BLA (Fsk stim); for activity change, negative = inhibition: % of control where 0% means no effect
Settings: CHO CRE-bla reporter (cAMP response element driving beta-lactamase), forskolin EC10, beta-lactamase ratio; activity change, negative = inhibition: at 38.2 µM (top of the series) unless noted
Method in brief: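 qHTS titration format; CRE-bla CHO reporter; stimulus EC10 NKH 477, a water-soluble forskolin. Read: CCF4 460/530 nm ratio. Potency expressed as AC50 for activators or inhibitors.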
Potency is the fitted concentration of half-maximal effect; tags give direction and shape of the fitted curve.

Row | Structure (SMILES) | Potency | activity change, negative = inhibition
1 | CC1=Nn2c(nnc2-c2ccccn2)SC1 | inconclusive: 12.6 µM [rising, single point] | 
2 | CCC(c1nnnn1Cc1cccs1)N1CCN(c2nc3ccccc3s2)CC1 (configuration not stated) |  | inconclusive: -17.9%
3 | O=C(O)CCC1COc2ccccc2O1 (configuration not stated) |  | inactive
4 | O=C1CCc2nc3sc4c(c3c(=O)n2N1)CCCC4 |  | inactive
5 | Cn1nc(-c2ccc(Cl)cc2)c2cc(C(=O)NCc3ccco3)sc21 | inconclusive: 10 µM [rising, partial curve] | 
6 | O=C1c2ccccc2C(Nc2ccc3c(c2)OCO3)N1Cc1ccc2c(c1)OCO2 (configuration not stated) |  | inactive
7 | CCOC(=O)C1=C(C)NC(=O)NC1C1CC=CCC1 (configuration not stated) |  | inactive
8 | c1ccc(Cc2nn3c(COc4ccccc4)nnc3s2)cc1 |  | inactive
9 | O=C(c1ccc(-c2nnc(-c3ccccc3)o2)cc1)N1CCCCCC1 |  | inconclusive: 1.03%
10 | Cc1nc2ccccc2c2oc(C(=O)NCCN3CCCCC3C)cc12 (configuration not stated) | inconclusive: 12.6 µM [rising, partial curve] | 
11 | Cc1ccc(S(=O)(=O)N2CCC(C(=O)OCC(=O)N3CCc4ccccc43)CC2)cc1 |  | inconclusive: -22.2%
12 | C[C@H](NC[C@H](O)CP(=O)(O)CC1CCCCC1)c1ccc(Cl)c(Cl)c1 |  | inconclusive: -14.8%
13 | Nc1cc(C(=O)OCC(=O)NCc2ccco2)ccc1Cl |  | inactive
14 | C[N+](C)(CCCCCC[N+](C)(C)CCCN1C(=O)c2cccc3cccc(c23)C1=O)CCCN1C(=O)c2cccc3cccc(c23)C1=O |  | inactive
15 | Cc1cccc(N=C(N2CCOCC2)P(=O)(N2CCOCC2)N2CCOCC2)c1 |  | inactive
16 | NS(=O)(=O)c1ccc(NCc2nc3ccccc3[nH]2)cc1 |  | inactive: -6.43% [at 7.6 µM]
17 | CN(C)c1ccc(C2C=C(c3ccc(Cl)cc3OC(F)F)Nc3ncnn32)cc1 (configuration not stated) | inconclusive: 10 µM [rising, partial curve] | 
18 | FC(F)(F)c1nc2nncn2c2c1CCCCC2 |  | inconclusive: 10.1%
19 | NCCNC[C@H](O)CO |  | inactive: -1.24% [at 7.6 µM]
20 | CCOc1cc(C2C(C(=O)N3CCCCC3)=C(C)NC3=C2C(=O)CC(C)(C)C3)ccc1O (configuration not stated) |  | inactive
21 | CC(C)C(=O)Nc1ccc(NC(=O)c2ccccc2Cl)nc1 |  | inactive

Row | Structure (SMILES) | Potency | activity change, negative = inhibition
22 | COCCN1CN=C(Nc2nc3ccccc3s2)NC1 |  | inconclusive: 19.4%
23 | N#Cc1c(N)nc2c(c1-c1ccco1)CCCCC2 | inconclusive: 12.6 µM [rising, partial curve] | 
24 | C=C1CC[C@@H](O)C/C1=C/C=C1\CCC[C@]2(C)[C@@H]1CC[C@H]2[C@@H](C)CCCC(C)C |  | inactive
25 | O=C(c1nc2ncccn2n1)N1CCN(c2ccc(F)cc2)CC1 |  | inactive
26 | O=C(C1CCN(S(=O)(=O)c2cccc3nsnc23)CC1)N1CCc2ccccc2C1 | inconclusive: 10 µM [falling, single point] | 
27 | CN(C)c1nc(Oc2ccc(=O)n(-c3ccccc3)n2)nc(N2CCOCC2)n1 | inconclusive: 20 µM [rising, single point] | 
28 | Nc1cc(=O)nc(SCc2ccccc2)n1Cc1ccco1 |  | inconclusive: -15.2%
29 | Cc1ccc(NC(=O)c2oc3ccccc3c2NC(=O)c2ccc3c(c2)OCO3)cc1 |  | inactive
30 | Cc1nc(CCNC(=O)COc2ccccc2)cs1 |  | inactive
31 | Cc1ccc(S(=O)(=O)c2cccc(S(=O)(=O)N3CCCC3)c2)cc1S(=O)(=O)N1CCCC1 |  | inconclusive: 20.5% [cytotoxic]
32 | OC(CN1C2=NCCN2c2ccccc21)c1ccc2c(c1)OCO2 (configuration not stated) | inconclusive: 10 µM [rising, single point] | 
33 | CCOc1cc(N2CCOCC2)c(OCC)cc1NC(=O)c1nc2nc(C)cc(C)n2n1 | active: 5.01 µM | 
34 | c1ccc(CCc2ccccc2-c2nc(-c3ccccn3)no2)cc1 |  | inconclusive: -19.9%
35 | Brc1ccc(NCc2nnc3n2CCCCC3)cc1 | inconclusive: 12.6 µM [rising, single point] | 
36 | Cc1ccc(NC(=O)c2ccco2)c(NC(=O)CN2C(=O)c3ccccc3C2=O)c1 |  | inactive
37 | Cc1nc(C)n(C(C)CC(=O)O)n1 (configuration not stated) |  | inactive
38 | COc1ccccc1CN(Cc1ccco1)S(=O)(=O)c1ccc(-n2cnnn2)c(OC)c1 | inconclusive: 5.01 µM [rising, single point] | 
39 | Cc1cc2cc(CN(Cc3cccs3)Cc3nnnn3CC3CCCO3)c(=O)[nH]c2cc1C (configuration not stated) | inconclusive: 12.6 µM [rising, single point] | 
40 | Cc1cccc(-c2c3c(=O)n(C)c(=O)n(C)c3cn2C(C)(C)C)c1 |  | inactive
41 | COCC(=O)N1CCC2(CC1)CCN(c1ccc(-c3ccccc3)cc1)CC2 |  | inactive
42 | CCOc1ccc(CC(=O)Nc2c(C(N)=O)oc3ccc(Br)cc23)cc1OCC | inconclusive: 10 µM [rising, partial curve] | 

Row | Structure (SMILES) | Potency | activity change, negative = inhibition
43 | Cn1c(SCc2nc3ccccc3n2CCO)nc2ccccc21 | inconclusive: 15.8 µM [rising, single point] | 
44 | CC(C)(C)C(=O)[C@@H]1[C@@H]2C(=O)N(c3ccc4c(c3)OCCO4)C(=O)[C@@H]2C2c3ccccc3C=CN21 (some centres not stated) |  | inconclusive: -1.39%
45 | COc1ccc(-c2cc(CCCC(=O)NCCc3cc(OC)ccc3OC)no2)cc1 |  | inconclusive: 22.5%
46 | O=C(Nc1nccs1)c1c(O)c2cccc3c2n(c1=O)CCC3 |  | inactive
47 | COC(=O)CSC1=C(C#N)C(c2sccc2C)CC(=O)N1 (configuration not stated) |  | inconclusive: 16.4%
48 | Cc1cc(=O)[nH]c(S/C=C/c2ccccc2)n1 | inconclusive: 5.01 µM [falling, partial curve] | 
49 | CC(C(=O)OCC(=O)Nc1ccc2c(c1)OCO2)N1C(=O)c2ccccc2C1=O (configuration not stated) |  | inconclusive: -6.61%
50 | CN(C)c1nc(-c2cccc(NS(C)(=O)=O)c2)nc2ccccc12 | active: 12.6 µM | 
51 | COCCn1nnnc1C(c1ccccn1)N1CCN(c2cc(C)ccc2C)CC1 (configuration not stated) |  | inactive
52 | O=C(Cc1cc(=O)[nH]c(=O)[nH]1)NCCN1CCOCC1 | inconclusive: 12.6 µM [rising, partial curve] | 
53 | FC(F)(F)c1cc(-c2ccccc2)nc(-n2cncn2)n1 | inconclusive: 10 µM [rising, single point] | 
54 | O=c1c2[nH]c3ccccc3c2ncn1CCC1=CCCCC1 |  | inconclusive: -3.96%
55 | CCCP(=O)(CC(=O)O)c1ccccc1 (configuration not stated) |  | inconclusive: 14.4% [at 7.6 µM]
56 | N#CCCn1c(=O)c(-c2ccccc2)nc2cnc(Nc3ccccc3)nc21 |  | inconclusive: -22.6% [fluorescent]
57 | COc1cccc(-c2nn(C)c3sc(C(=O)N4CCOCC4)cc23)c1 | active: 10 µM | 
58 | COc1ccc(-n2c(Cc3cccn3C)nnc2SCC(=O)NCc2ccco2)cc1 |  | inconclusive: 25.1%
59 | O=C(NC1c2ccccc2-c2ccccc21)N1CCCCC1 | inconclusive: 0.0631 µM [rising, full curve, poor fit] | 
60 | COc1ccccc1CNc1ccnc(-c2cccc(NS(C)(=O)=O)c2)n1 |  | inconclusive: 12.7%
61 | Cc1ccc(OCCCC(=O)Nc2ccc(S(=O)(=O)Nc3cc(C)on3)cc2)cc1 |  | inactive
62 | COc1ccc(-n2ncc3c(NCCCN4CCOCC4)ncnc32)cc1 |  | inactive
63 | CCN(CC)S(=O)(=O)c1ccc(Nc2cc(C)nc3ncnn23)cc1 |  | inconclusive: 17.6%

Row | Structure (SMILES) | Potency | activity change, negative = inhibition
64 | CC(C)(C)NC(=O)[C@@H]1C[C@@H]2CCCC[C@@H]2CN1C[C@@H](O)[C@H](Cc1ccccc1)NC(=O)[C@H](CC(N)=O)NC(=O)c1ccc2ccccc2n1 |  | inconclusive: -5.82%
65 | C/C(Nc1ccc(F)cc1)=C(/C#N)C(N)=O |  | inconclusive: -11%
66 | CN1CCN(c2ncnc3ccc(-c4ccccc4C(F)(F)F)cc23)CC1 | inconclusive: 12.6 µM [rising, partial curve] | 
67 | OCC#CCSc1nnc(-c2ccccc2Br)o1 | inconclusive: 25.1 µM [rising, single point] | 
68 | COc1ccc(-c2nnc(CSc3nc4ccccc4c(=O)n3CC3CCCO3)o2)cc1OC (configuration not stated) |  | inconclusive: 14.9%
69 | Cc1cc(C)n(-c2cc(N3CCOCC3)ncn2)n1 |  | inactive
70 | COc1ccc(N2CCC(CNS(=O)(=O)c3cccc(C(F)(F)F)c3)C2)cc1 (configuration not stated) |  | inactive
71 | COc1cc(C(=O)Nc2ccccc2N2CCN(S(C)(=O)=O)CC2)cc(OC)c1OC | inconclusive: 10 µM [rising, partial curve] | 
72 | COc1cc2c(C(=O)NCc3ccc4c(c3)OCO4)cn(C)c(=O)c2cc1OC | inconclusive: 0.501 µM [rising, full curve] | 
73 | CCOC(=O)Nc1cc(OCC)c(NC(=O)C2CC2)cc1OCC |  | inconclusive: -19% [fluorescent]
74 | CCc1c2c(nc3ccc(OC)cc13)COC2 | inconclusive: 7.94 µM [rising, partial curve] | 
75 | CCc1ccc2oc(-c3cc(N=Cc4cccc(OC)c4O)ccc3O)nc2c1 |  | inactive
76 | O=c1c(-c2ccc(Cl)cc2)nc2cnc(N3CCNCC3)nc2n1Cc1ccc(F)cc1 | inconclusive: 0.316 µM [rising, full curve] | 
77 | c1ccc(CSCCc2ccncc2)cc1 |  | inconclusive: -1.14% [at 7.6 µM]
78 | N#Cc1cc2c(nc1SCc1ccccc1)CCCC2=O | inconclusive: 10 µM [rising, single point] | 
79 | CCOC(=O)C1CCCN(C2CC(=O)N(c3cccc(C(F)(F)F)c3)C2=O)C1 (configuration not stated) | inconclusive: 20 µM [falling, single point] | 
80 | CCNc1cc(=O)n(C)c(=O)n1C | active: 10 µM | 
81 | O=C(Oc1ccccc1)c1ccccc1O |  | inactive
82 | NCCCCCCNS(=O)(=O)c1cccc2ccccc12 | inconclusive: 15.8 µM [rising, partial curve] | 
